Data taken from article PMC4336329 (PLoS ONE, 2015).
Screen size: about 310,000 compounds; about 2,200 (0.71%) showed an effect of 50% or more. Effects have a minus sign here. The list shows a part of the results.

What follows are molecules tested against human ether-à-go-go-related gene (hERG) potassium channel (human, UniProt Q12809) (assay: primary screen, population patch clamp on CHO cells stably expressing hERG).
human ether-à-go-go-related gene (hERG) potassium channel, sequence (Q12809 whole entry, looked up): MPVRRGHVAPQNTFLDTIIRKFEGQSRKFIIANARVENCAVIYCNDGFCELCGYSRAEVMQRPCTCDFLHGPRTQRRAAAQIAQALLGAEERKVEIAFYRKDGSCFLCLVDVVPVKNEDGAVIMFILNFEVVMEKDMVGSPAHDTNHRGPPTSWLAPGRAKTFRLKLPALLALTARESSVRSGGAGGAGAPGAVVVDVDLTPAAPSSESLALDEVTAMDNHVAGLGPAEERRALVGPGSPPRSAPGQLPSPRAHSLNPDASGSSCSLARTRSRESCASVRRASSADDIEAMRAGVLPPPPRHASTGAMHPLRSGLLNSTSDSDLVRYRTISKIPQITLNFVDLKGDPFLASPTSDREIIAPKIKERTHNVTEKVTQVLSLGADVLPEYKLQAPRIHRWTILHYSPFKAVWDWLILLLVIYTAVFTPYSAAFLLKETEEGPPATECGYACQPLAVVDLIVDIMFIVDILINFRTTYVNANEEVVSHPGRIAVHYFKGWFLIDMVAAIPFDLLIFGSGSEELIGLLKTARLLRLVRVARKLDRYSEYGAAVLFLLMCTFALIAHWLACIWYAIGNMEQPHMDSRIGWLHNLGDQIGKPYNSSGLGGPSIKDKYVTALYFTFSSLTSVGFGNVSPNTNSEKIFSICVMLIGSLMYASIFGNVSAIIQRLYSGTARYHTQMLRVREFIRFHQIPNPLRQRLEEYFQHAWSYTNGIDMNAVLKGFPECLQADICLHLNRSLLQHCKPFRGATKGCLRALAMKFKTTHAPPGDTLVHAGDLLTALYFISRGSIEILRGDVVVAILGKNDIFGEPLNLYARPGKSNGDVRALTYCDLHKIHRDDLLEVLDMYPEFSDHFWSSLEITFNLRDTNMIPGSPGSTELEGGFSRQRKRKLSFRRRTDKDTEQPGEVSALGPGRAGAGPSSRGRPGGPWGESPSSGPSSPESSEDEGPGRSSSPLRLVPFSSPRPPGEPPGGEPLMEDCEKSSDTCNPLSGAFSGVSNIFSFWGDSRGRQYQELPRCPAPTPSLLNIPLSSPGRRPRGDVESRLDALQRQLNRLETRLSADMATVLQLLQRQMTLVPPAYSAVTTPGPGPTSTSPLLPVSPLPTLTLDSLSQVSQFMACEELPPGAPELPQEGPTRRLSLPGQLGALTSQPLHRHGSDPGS

| Compound | hERG current change (%, negative = inhibition) at 1uM [%] |
| --- | --- |
| COc1ccc(CNC(=O)c2cc(-c3ccccc3O)n[nH]2)cc1 | 8.65 |
| COc1ccc(-n2c(SCC(=O)OC(C)C)nnc2-c2ccccn2)cc1 | -16 |
| COc1cc(NC(=O)c2cc(S(=O)(=O)N3CCc4ccccc43)cn2C)cc(OC)c1OC | 13.6 |
| O=[N+]([O-])C1=CC=C2C(=NC3(CCCCC3)N2O)C1=NC1CCCCC1 | 25 |
| CCCS(=O)(=O)N1CCN(C(=O)c2cc(OC)cc(OC)c2)CC1 | 10.7 |
| COc1ccc(C(=O)N/C(=C/c2cccnc2)C(=O)N2CCCCCC2)cc1OC | 10.4 |
| COc1cc(NC(=O)CSc2nnnn2Cc2ccccc2)cc(OC)c1 | 7.74 |
| CC(C)OP(=O)(c1ccc(N(C)C)cc1)C(O)c1ccc(N(C)C)cc1 (stereo not drawn) | 11.4 |
| O=C(c1ccco1)N1CCN=C1SCc1cccc(F)c1 | 1.43 |
| CC(=O)NNC(=O)c1sc(=S)n(C)c1C | 8.85 |
| CC(=O)N1c2ccc(N=Cc3cc(Br)cc(Br)c3O)cc2CC1C (stereo not drawn) | 10.5 |
| CCSc1nc(-c2ccccc2)c(-c2ccccc2)n1CC(O)CO (stereo not drawn) | 4.81 |
| Cc1nc(-c2cccc(NC(=O)C3CCCCC3)c2)cs1 | 8.18 |
| Cn1c(/C(C#N)=C/c2ccc(-c3ccc(S(N)(=O)=O)cc3)o2)nc2ccccc21 | -7.29 |
| O=C(NCc1ccccn1)c1ccc(CNS(=O)(=O)c2ccc(F)cc2)cc1 | 17.5 |
| COc1ccc(C(OC(=O)c2cccs2)C(=O)NCC2CCCO2)cc1 (stereo not drawn) | -0.195 |
| COc1cc(C(=O)NNC(=O)c2ccccc2OCc2c(C)noc2C)cc(OC)c1OC | 1.66 |
| O=C(Cc1ccc(Cl)cc1Cl)Nc1cccc(S(=O)(=O)Nc2ccccc2F)c1 | 7.28 |
| COC(=O)c1ccc(Cn2nc(C)c(Br)c2C)cc1 | 10.5 |
| C=CCC1(C)C(=O)N(c2ccccc2)c2ccccc21 (stereo not drawn) | 18.2 |
| CCN(CC(=O)Nc1cccc(C#N)c1)CC(=O)Nc1cccc(OC)c1 | -2.99 |
| CCOC(=O)/C=c1\s/c(=C\c2sccc2C)c(=O)n1CC(=O)NCc1ccc(C)cc1 | 16.3 |

| Compound | hERG current change (%, negative = inhibition) at 1uM [%] |
| --- | --- |
| Cc1ccc(N2CC(C(=O)Nc3ccc(N(C)C)cc3)CC2=O)cc1C (stereo not drawn) | 8.76 |
| Cc1ccc(NC(=O)Cc2ccccc2F)cc1S(=O)(=O)N1CCCCCC1 | 2.69 |
| COc1ccc(OC)c(/C=C/C(=O)Nc2cccc(S(=O)(=O)NC3=NCCCCC3)c2)c1 | 5.24 |
| CCC(=O)N/N=C/c1ccc(-c2ccc([N+](=O)[O-])cc2)o1 | 15.9 |
| COc1ccc2oc(C)c(C(=O)c3ccccc3)c2c1 | 11 |
| CCOC(=O)/C=C1\NC(C)(C)Cc2cc(OC)c(OC)cc21 | 8.67 |
| COCCn1c(SC(C)C(=O)Nc2ccc(Cl)cn2)nnc1-c1ccncc1 (stereo not drawn) | -2.1 |
| COC(=O)C1=C(c2ccc(OC(F)(F)F)cc2)C[C@@H]2CC[C@H]1N2C(=O)NCCOc1ccccc1 | 6.83 |
| CCOC(=O)c1ccc(N=C2C(=S)N(c3ccc(C(=O)OCC)cc3)C(=N)N2/N=C/c2ccccc2)cc1 | -12.6 |
| C/C(CC(=O)Nc1ccc(Cl)c(Cl)c1)=N\NC(=O)C(=O)N1CCCCC1 | 19.2 |
| Cc1cccc(NC(=O)Nc2c(C)[nH]c(=O)[nH]c2=O)c1C | 15 |
| CC(NC(=O)CC1Sc2ccccc2NC1=O)c1ccccc1 (stereo not drawn) | 15 |
| COc1ccc(C(=O)NC(=S)N2CCC(C)CC2)cc1Br | 2.86 |
| Cc1ccccc1S(=O)(=O)Cc1ccc(C(=O)NCc2ccco2)o1 | 1.46 |
| O=C1C2CCCN2C(=S)N1Cc1ccccc1 (stereo not drawn) | 8.12 |
| Cn1ncc2c(Nc3ccccc3Br)ncnc21 | 17.1 |
| COc1ccc(-c2cc(C3CC3)nc(SCC(=O)c3cccs3)c2C#N)cc1 | 9.55 |
| COC(=O)c1ccccc1NC(=O)CSc1nnc(C(CO)NC(=O)c2ccccc2)n1C (stereo not drawn) | 6.73 |
| COC(=O)c1sc(NC(=O)/C=C/c2ccc(C)cc2)nc1C | 13.4 |
| CCCCCCCC(=O)N1CCN(c2cc3c(cc2F)c(=O)c(C(=O)O)cn3CC)CC1 | 5.98 |
| CN(Cc1ccccc1)C(=O)COC(=O)c1ccc(Cl)cc1N | 2.03 |
| Cc1nc2ccc(Cl)cc2c(=O)n1-c1cccc(Cl)c1 | 12.2 |

| Compound | hERG current change (%, negative = inhibition) at 1uM [%] |
| --- | --- |
| O=C(NC(=S)NCc1ccccc1)c1ccc(Br)o1 | 10.4 |
| CCCCC(=O)Nc1ccc(NC(=S)NC(=O)CCCCl)cc1OC | 7.01 |
| Cc1nn(Cc2c(F)c(F)c(F)c(F)c2F)c(C)c1NC(=O)c1cccc(COc2ccc(Cl)cc2)c1 | 13.5 |
| Cl.N[C@@H](Cc1ccccc1)c1nnc(SC/C=C/c2ccccc2)o1 | 5.22 |
| O=C(OCn1nnc2ccccc2c1=O)c1cc(-c2ccccc2)nc2ccccc12 | 13.7 |
| CC(C)(C)c1ccc(/C=N/NC(=O)CN2CCS(=O)(=O)CC2)cc1 | 5.54 |
| OCCC1CN(Cc2ccc(Oc3ncccn3)cc2)CCN1C1CCCC1 (stereo not drawn) | 16.2 |
| CC(Sc1ccccc1)C(=O)NN=C1CCCC1 (stereo not drawn) | 10 |
| COc1ccc(C2C(Oc3ccccc3C)C(=O)N2Cc2ccc(F)cc2)cc1OC (stereo not drawn) | 9.12 |
| Cc1ccc(/C=C(\C#N)C(=O)NCCN2CCOCC2)cc1 | 12.6 |
| CC1=NN(C(=O)Cc2ccc(C)cc2)C(O)(c2cccnc2)C1 (stereo not drawn) | 12.2 |
| COc1ccc(-c2nnc(NC(=O)Cc3ccccc3)o2)cc1 | 18.8 |
| CCC1CCCCN1CCCNC(=O)CS(=O)Cc1nc(-c2ccc(OC)c(OC)c2)oc1C (stereo not drawn) | 9.24 |
| CN(C)S(=O)(=O)c1cccc(COC(=O)CCNC(=O)c2ccc([N+](=O)[O-])cc2)c1 | 1.84 |
| O=c1cc2c(nn1Cc1ccc(Cl)cc1Cl)-c1ccccc1CC2 | 12.8 |
| N#Cc1c(-c2ccc(F)cc2)cc(-c2ccccc2)nc1SCC(=O)NCC(=O)O | -2.31 |
| COc1ccccc1-c1nn(-c2ccccc2)cc1C(=O)NCC(c1ccco1)N1CCCC1 (stereo not drawn) | -2.33 |
| COC(=O)c1cc(OC)c(OC)cc1N=CC1=C(O)CC(C)(C)CC1=O | 12.1 |
| Cc1cc(NC(=O)C(C)SCC(=O)OCc2ccc(Cl)cc2Cl)no1 (stereo not drawn) | 9.29 |
| COc1ccc(/C=N/NC(=O)c2cccc(NC(=O)c3ccccc3Cl)c2)cc1 | 4.12 |
| N#C/C(=C\c1ccc(-c2nc3ccccc3s2)o1)C(N)=O | 13.7 |
| COc1cccc(CN(C)C(=O)CCN=C2NS(=O)(=O)c3ccccc32)c1OC | 14.8 |

| Compound | hERG current change (%, negative = inhibition) at 1uM [%] |
| --- | --- |
| CC(=O)N1c2ccc(S(=O)(=O)N3CCC(C(=O)Nc4cccc(C)n4)CC3)cc2CC1C (stereo not drawn) | 14.4 |
| CC12C(=O)N(n3cnnc3)C(=O)C1C1C=CC2C1 (stereo not drawn) | 2.37 |
| Cc1cccc(N2CCN(C(=O)C3CC(=O)N(c4ccc5c(c4)OCCO5)C3)CC2C)c1 (stereo not drawn) | 4.65 |
| Cl.NC(CO)C12CC3CC(CC(C3)C1)C2 (stereo not drawn) | 14.7 |
| O=C(O)c1ccc(CN2C(=O)CSC2=S)cc1 | -1.81 |
| O=C1N(Cc2ccccc2)CCCC12CCCN(Cc1ccccc1)C2=O | 5.61 |
| O=C(NCC1CCCO1)c1cc(-c2ccccc2)nc2ccccc12 (stereo not drawn) | 6.61 |
| CCCCOc1ccc(C(=O)N/N=C/c2ccc(OCCN3CCCCC3)c(OC)c2)cc1 | -4.69 |
| C=C(C)CNC(=O)c1ccc(OC2CCN(C(=O)COC)CC2)cc1 | 13.3 |
| CC(=O)Nc1cc2nn(-c3ccccc3)nc2cc1C | 13.1 |
| O=C(Cc1ccccc1F)Nc1nc2ccccc2[nH]1 | 0.695 |
| O=C(CSc1ccc2nnc(-c3ccccn3)n2n1)Nc1ccc(F)cc1F | -1.28 |
| COc1cc(NC(=O)CSc2nc3cc(C)ccc3cc2C)c(C(=O)O)cc1OC | 2.36 |
| O=C1C2C3C=CC(C3)C2C(=O)N1c1n[nH]c(-c2cccnc2)n1 (stereo not drawn) | 11.8 |
| Cc1ccc(C(=O)N2CCC(C(=O)NCc3cccnc3)CC2)cc1 | 2.44 |
| C=CCc1cccc2cc(C(=O)N(C)C)c(=O)oc12 | 7.52 |
| COc1cccc(NS(=O)(=O)c2c(C)cc(C)cc2C)c1 | 5.14 |
| Cc1cc2cc3c(cc2nc1SCC(=O)OC(C)C)OCCO3 | 12 |
| COc1ccc(C)cc1N(CC(=O)N1CCCC1)S(=O)(=O)c1ccccc1 | 19.1 |
| Cc1ccc2c(c1)C1CC(C)(O2)N(c2cccc(C(=O)NC3CCN(Cc4ccccc4)CC3)c2)C(=O)N1 (stereo not drawn) | 13.7 |
| CCN(CC)C(=O)CSc1nc2ccccc2n1CC(=O)N1CCN(c2ccccc2OC)CC1 | 5.29 |
